The results in this text go back to PMC4336329 (PLoS ONE, 2015).

Among all 310,000 compounds or so, about 2,200 (0.71%) showed an effect of 50% or more. The effect is printed as a negative number. This is one part of the list.

Chain of human ether-à-go-go-related gene (hERG) potassium channel (Q12809 whole entry, looked up): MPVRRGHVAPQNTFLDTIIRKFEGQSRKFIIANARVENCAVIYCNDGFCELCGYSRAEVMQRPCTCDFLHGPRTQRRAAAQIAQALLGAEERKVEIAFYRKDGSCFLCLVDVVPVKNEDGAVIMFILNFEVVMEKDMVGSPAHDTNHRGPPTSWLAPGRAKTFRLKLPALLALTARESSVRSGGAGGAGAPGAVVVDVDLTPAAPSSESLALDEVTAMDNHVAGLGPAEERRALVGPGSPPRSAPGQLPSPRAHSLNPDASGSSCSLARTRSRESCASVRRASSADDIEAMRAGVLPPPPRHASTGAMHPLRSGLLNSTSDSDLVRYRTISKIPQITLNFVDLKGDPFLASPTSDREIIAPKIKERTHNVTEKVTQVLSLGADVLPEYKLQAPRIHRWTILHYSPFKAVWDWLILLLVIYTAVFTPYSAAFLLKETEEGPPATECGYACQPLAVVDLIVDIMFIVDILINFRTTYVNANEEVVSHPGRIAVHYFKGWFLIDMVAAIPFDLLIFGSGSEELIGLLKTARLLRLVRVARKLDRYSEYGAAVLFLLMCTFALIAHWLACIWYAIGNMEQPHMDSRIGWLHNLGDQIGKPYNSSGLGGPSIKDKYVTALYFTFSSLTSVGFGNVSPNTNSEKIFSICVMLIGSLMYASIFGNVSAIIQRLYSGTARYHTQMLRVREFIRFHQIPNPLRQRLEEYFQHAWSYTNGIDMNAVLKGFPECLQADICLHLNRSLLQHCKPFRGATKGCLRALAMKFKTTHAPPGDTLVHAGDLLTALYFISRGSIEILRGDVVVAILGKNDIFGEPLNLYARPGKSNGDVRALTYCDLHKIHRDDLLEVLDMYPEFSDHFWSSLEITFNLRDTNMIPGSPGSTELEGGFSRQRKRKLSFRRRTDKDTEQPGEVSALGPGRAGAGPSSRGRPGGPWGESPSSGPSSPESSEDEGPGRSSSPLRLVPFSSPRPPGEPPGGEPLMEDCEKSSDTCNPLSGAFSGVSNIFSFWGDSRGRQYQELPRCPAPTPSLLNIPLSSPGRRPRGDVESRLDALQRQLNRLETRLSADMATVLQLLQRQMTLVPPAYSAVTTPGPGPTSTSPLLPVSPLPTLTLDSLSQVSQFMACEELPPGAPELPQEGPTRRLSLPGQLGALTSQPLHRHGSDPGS

The experiment has as its target human ether-à-go-go-related gene (hERG) potassium channel (human, UniProt Q12809). The experiment can be described thus: primary screen, population patch clamp on CHO cells stably expressing hERG.
For the compound `Cc1nnc2c(N3CCN(CCO)CC3)nc3ccccc3n12`, the “hERG current change (%, negative = inhibition) at 1uM” value is on record as 7.4%. For the compound `CC(C)(C)c1cc(NC(=O)CCSc2nnc3ccccn23)cc(C(C)(C)C)c1`, the “hERG current change (%, negative = inhibition) at 1uM” value turned out to be 11.9%.

Consider `CCOc1cc(NS(=O)(=O)CC)c(OCC)cc1NC(=O)c1ccco1`, for which the “hERG current change (%, negative = inhibition) at 1uM” value was found to be 1.42%.

On to `O=C(O)c1ccc(S(=O)(=O)/N=C2\C=C(Nc3ccccc3F)C(=O)c3ccccc32)cc1`, for which the “hERG current change (%, negative = inhibition) at 1uM” value amounted to 4.01%.

With `COc1ccc(C)cc1S(=O)(=O)Nc1cc(Cl)ccc1Cl`, the “hERG current change (%, negative = inhibition) at 1uM” value amounted to 3.11%. Under `O=C(O)c1cccnc1Sc1ncnc2sc3c(c12)CCC3` stands 7.51%. Under `O=C(N/N=C\c1ccc(F)cc1)c1cc(OCC(F)(F)F)ccc1OCC(F)(F)F` stands -8.67%; under `Cc1ccc(CNCC(O)(c2ccccc2)c2ccc(F)cc2)cc1` (centres unmarked), -2.41%. As for `COc1ccc(OC)c(C2C3=C(N=C4SCC(=O)N42)c2ccccc2CC3)c1` (centres unmarked), the “hERG current change (%, negative = inhibition) at 1uM” value stood at 3.33%. Turning to `Cc1c(C)c2cccnc2c2ncccc12`, the “hERG current change (%, negative = inhibition) at 1uM” value is 9.57%. Under `Cc1ccc(N2CC(C(=O)Nc3ccc4c(c3)OCO4)CC2=O)cc1C` (centres unmarked) stands 11.6%; under `O=C1CCCc2c1[nH]c1ccccc21`, 19.2%; under `COC(=O)c1c(N2C(=O)[C@H]3[C@@H](C2=O)[C@]2(C(=O)Nc4c2ccc(C)c4C)N2CCC[C@@H]32)sc(C)c1C`, 13.6%. `CC(C)COc1cccc(C(=O)NC2(C)CCS(=O)(=O)C2)c1` (centres unmarked): the “hERG current change (%, negative = inhibition) at 1uM” value was -1.01%.

Regarding `O=C1CCCN2N=C(SCC(=O)N3N=C(c4ccc(Br)cc4)CC3c3ccc(F)cc3)SC2=N1` (centres unmarked), the “hERG current change (%, negative = inhibition) at 1uM” value was 5.91%. In the case of `N/C(=N\OC(=O)Oc1ccccc1)c1ccc(Br)cc1` it was 2.93%; in that of `O=C(N/N=C/c1ccc(OC(F)F)cc1)c1ccc(Br)cc1`, 2.07%.

For `O=C(CC1NC(=O)NC1=O)Nc1ccc(Cl)cc1` (centres unmarked), the “hERG current change (%, negative = inhibition) at 1uM” value came out at 21.8%. Under `COc1cccc(-c2nc(C(=O)NCCCN3CCOCC3)cc3c2[nH]c2ccccc23)c1` stands -1.55%.

`CCOC(=O)C1=C(C)NC2=C(C(=O)CCC2)C1c1coc2ccccc2c1=O` (centres unmarked): the “hERG current change (%, negative = inhibition) at 1uM” value stood at 10.7%.

Consider `CCOC(=O)c1ccc(N2CCOCC2)c(NC(=O)c2ccc3c(c2)OCO3)c1`, for which the “hERG current change (%, negative = inhibition) at 1uM” value was 6.28%. In the case of `CN(CC(=O)Nc1ccc(Cl)cc1)C(=O)CNC(=O)c1ccc(Br)o1` it was 13.1%. Regarding `CN(c1ccccc1)S(=O)(=O)c1ccc(C(=O)NCC(c2ccco2)N2CCCCC2)cc1` (centres unmarked), the “hERG current change (%, negative = inhibition) at 1uM” value was -3.64%. For the compound `O=C(NC1CC1)C(Cl)c1ccccc1` (centres unmarked), the “hERG current change (%, negative = inhibition) at 1uM” value turned out to be 9.14%. Consider `CCCCCc1c(O)c2ccccc2[nH]c1=O`, for which the “hERG current change (%, negative = inhibition) at 1uM” value stood at 2.35%. In the case of `O=C(Cn1ncc2c(=O)oc3ccccc3c21)N1CCc2ccccc2C1` it was 10.5%. Consider `O=C(c1ccc(S(=O)(=O)N2CCCC2)cc1)N1CCN(Cc2ccc3c(c2)OCO3)CC1`, for which the “hERG current change (%, negative = inhibition) at 1uM” value is -13.5%.

Regarding `CC1CC1C(=O)OCC(=O)NC(=O)NC12CC3CC(CC(C3)C1)C2` (centres unmarked), the “hERG current change (%, negative = inhibition) at 1uM” value was 11.6%.

`CCSc1ncnc2c1sc1nc(-c3ccco3)c3c(c12)CC(C)(C)OC3`: the “hERG current change (%, negative = inhibition) at 1uM” value was 12.8%.

On to `CC1(C)CC(=O)C=C(N2CCOCC2)C1`, for which the “hERG current change (%, negative = inhibition) at 1uM” value came out at 11.3%.

On to `O=C(OCC(=O)N1CCC(Cc2ccccc2)CC1)c1ccccc1F`, for which the “hERG current change (%, negative = inhibition) at 1uM” value was determined as 11.7%. Regarding `C[n+]1c(-c2ccccc2)sc2ccccc21.[O-][Cl+3]([O-])([O-])[O-]`, the “hERG current change (%, negative = inhibition) at 1uM” value came out at 17.9%.

`CCCCN1CCN=C1Nc1ccccc1`: the “hERG current change (%, negative = inhibition) at 1uM” value amounted to 11.8%. As for `Cl.Nc1n[nH]c(-c2ccc(F)cc2)n1`, the “hERG current change (%, negative = inhibition) at 1uM” value came to 4.01%. Under `COc1ccc(CN2CCNC(=O)C2CC(=O)NCC(C)(C)N2CCOCC2)cc1C` (centres unmarked) stands 15.3%; under `Cn1c(=O)oc2cc(S(=O)(=O)N3CCC(C(=O)NCC4COc5ccccc5O4)CC3)ccc21` (centres unmarked), 7.13%; under `Cc1nc2ccccc2c(=O)n1/N=C/c1ccccc1`, 10.3%.

As to `COC(=O)c1ccccc1S(=O)(=O)N1CCC(C(=O)NCC2CCCO2)CC1` (centres unmarked), the “hERG current change (%, negative = inhibition) at 1uM” value is 12.7%. For `CN1CCN(C2=C(NS(=O)(=O)c3ccccc3)C(=O)c3ccccc3C2=O)CC1`, the “hERG current change (%, negative = inhibition) at 1uM” value was 11.5%. In the case of `CCOc1ccc(-c2c(=O)n(OCc3ccc([N+](=O)[O-])cc3)c3ccccc3[n+]2[O-])c(OCC)c1` it was 3.68%; in that of `Cc1ccc(N/N=C/c2ccncc2)cc1.Cl`, 11.1%. In the case of `CCN1CCN(CCC(=O)Nc2ccccc2OC)CC1` it was 10.9%. In the case of `COc1ccc(C=C2c3ccccc3C(=O)c3ccccc32)c(OC)c1` it was 7.49%. `O=C(O)c1ccccc1C(=O)Nc1nc(-c2ccccc2)cs1`: the “hERG current change (%, negative = inhibition) at 1uM” value was 2.8%. In the case of `O=C(C1CCCC1)N1CCCC(Nc2ccc(F)cc2)C1` (centres unmarked), the “hERG current change (%, negative = inhibition) at 1uM” value is -16.6%. Consider `COCCCNc1nc2ccccc2nc1NS(=O)(=O)c1ccc(Cl)cc1`, for which the “hERG current change (%, negative = inhibition) at 1uM” value was 1.52%. In the case of `COc1ccc(-c2noc(N3CCC(C(=O)Nc4cccc(OC)c4)CC3)n2)cc1` it was 12.1%. Under `O=C(Cc1ccc(Cl)c(Cl)c1)NNC(=S)NCC1CCCO1` (centres unmarked) stands 13.2%. Under `COc1ccc(CC(=O)O/N=C(\N)c2ccccn2)cc1OC` stands 11.8%. `O=C1OC(NCc2cccnc2)(c2ccc(Cl)cc2)c2ccccc21` (centres unmarked): the “hERG current change (%, negative = inhibition) at 1uM” value is given as 9.52%. Under `CCCCN1C(=S)NC[C@@H]1Cc1ccccc1` stands -9.48%; under `CSc1ccccc1C(=O)C1CCCN(Cc2ccncc2)C1` (centres unmarked), -13.9%. Take `CNC(=S)N/N=C/c1c(C)nn(-c2ccc(F)cc2)c1Cl`: the “hERG current change (%, negative = inhibition) at 1uM” value was determined as 13%. In the case of `CN1CCN(CCC2Oc3cc([N+](=O)[O-])ccc3NC2=O)CC1` (centres unmarked) it was -5.52%. As to `COc1cc(NC(=O)c2ccc(N)nc2)cc(C(=O)Nc2cccc(C(F)(F)F)c2)c1`, the “hERG current change (%, negative = inhibition) at 1uM” value was 8.56%. Take `Cc1ccc(S(=O)(=O)N2CCCCC2)cc1C(=O)NCCCN1CCOCC1`: the “hERG current change (%, negative = inhibition) at 1uM” value turned out to be 10.9%. In the case of `CCSc1nnc(NC(=O)[C@H](C)NC(=O)c2ccccc2Cl)s1` it was 8.07%; in that of `c1ccc2c(c1)Sc1ccccc1-n1cnnc1-2`, 9.06%. In the case of `Cc1ccc(N(CC(=O)NCCSc2ccccn2)S(=O)(=O)c2ccc(F)cc2)cc1` it was -7.62%; in that of `CCOC(=O)c1c(N)sc(C(=O)N2CCCC2)c1C`, 7.35%; in that of `O=[N+]([O-])c1ccc2nc(NS(=O)(=O)c3ccc(F)cc3)sc2c1`, 23.5%. In the case of `COc1cc(/C=C(\C#N)C(=O)NC(C)C)cc(Cl)c1O`, the “hERG current change (%, negative = inhibition) at 1uM” value was 5.3%. Turning to `Cc1c(Cl)cccc1NC(=S)N(C)CCC#N`, the “hERG current change (%, negative = inhibition) at 1uM” value turned out to be 14.3%. In the case of `O=C(c1cc2ccccc2oc1=O)N(Cc1ccccc1F)C1CCS(=O)(=O)C1` (centres unmarked) it was 6.28%; in that of `Cc1ccc(NC(=O)CSc2nc3ccccc3nc2N2CCOCC2)c(C)c1`, 12.5%.

For the compound `O=S(=O)(NCCCc1ccccc1)c1ccccc1`, the “hERG current change (%, negative = inhibition) at 1uM” value turned out to be 10.3%. In the case of `CCNC(=S)NNC(=O)c1cc(C)on1` it was -2.59%; in that of `CCc1nn2c(=O)cc(COc3ccc(/C=C4\C(=N)N5N=C(CC(C)C)SC5=NC4=O)cc3)nc2s1`, 4.08%.

For `CN(CCO)CC(O)Cn1cnc2c1c(=O)n(C)c(=O)n2C.O=C(O)c1cccnc1` (centres unmarked), the “hERG current change (%, negative = inhibition) at 1uM” value stood at 11.7%. In the case of `COc1ccccc1N1C(=O)C2CC(C)=C(C)CC2C1=O` (centres unmarked) it was 8.09%; in that of `CC1CN(C(=O)COc2ncnc3ccccc23)CC(C)O1` (centres unmarked), 16.9%. In the case of `COc1ccc(C(=O)C2CCCN(C(=O)c3cc(C(C)C)no3)C2)cc1F` (centres unmarked) it was -4.78%; in that of `CCn1c(SCC(=O)N2CCOCC2)nc2sc3c(c2c1=O)CCCC3`, 9.72%; in that of `CC(C)CN(C(=O)CSc1nc(-c2ccccc2)cn1N)c1c(N)n(Cc2ccccc2)c(=O)[nH]c1=O`, 9.84%. In the case of `CCn1c(O)c(C=NCCN2CCOCC2)c(=O)[nH]c1=S` it was 9.3%. `CCN(CC)S(=O)(=O)c1cccc(C(=O)N[C@H](C(=O)O)C(C)C)c1`: the “hERG current change (%, negative = inhibition) at 1uM” value is 7.69%.

Consider `O=C(Nc1ccc2c(c1)OCCO2)c1ccc2nccnc2c1`, for which the “hERG current change (%, negative = inhibition) at 1uM” value is 10.1%. In the case of `CN(C)CCOC(=O)NC12CC3CC(CC(C3)C1)C2.Cl` it was 4.92%; in that of `N#CCC(=O)N/N=C/c1cc(Br)ccc1OCc1cccc2ccccc12`, 8.94%. Under `Cc1cccc(NC(=O)CSc2nc3ccc(NC(=O)CSc4nnnn4-c4ccccc4)cc3s2)c1C` stands 7.86%; under `O=C(Nc1ccc(Cl)cc1Cl)Nn1cnnc1`, 5.21%. As to `CC(=O)OC1c2ccccc2C(=O)N1c1ccccc1C` (centres unmarked), the “hERG current change (%, negative = inhibition) at 1uM” value is on record as 1.81%. In the case of `C=CCOc1ccnc(-c2ccccc2)n1` it was 13.8%; in that of `OC(CN1CCOCC1)Cn1c2ccccc2c2ccccc21` (centres unmarked), 11.5%. Under `COc1ccc(OC)c(/C=N\NC(=O)CSc2nnc(CCCc3ccc(OC)c(C)c3)o2)c1` stands 9.34%; under `CCOC(=O)N1CCN(C(=O)C2CCN(S(=O)(=O)c3cc(Cl)ccc3OCC)CC2)CC1`, -11.7%. With `O=C(CSc1nnc2scc(-c3ccccc3)n12)Nc1nsc(-c2ccccc2)n1`, the “hERG current change (%, negative = inhibition) at 1uM” value is listed as -14.9%. Under `COC(=O)c1cc(=O)n(Cc2ccc3c(c2)OCO3)c(=Nc2ccc(F)cc2)s1` stands 16.2%; under `COc1ccc(CCNC2CC(=O)N(N(C)C)C2=O)cc1OC` (centres unmarked), 14.5%.
